# Test results from PubChem BioAssay (NCI).
# More than one record can exist for a structure, and the calls need not agree.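 Activity criterion: percent growth below 10, measured after cells in 96-well plates were exposed to a single compound concentration for 48 hours.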 Not every entry of the source has a single result; some have several. This list holds those alone. The source may hold further records. The screen tested this drug many times, at its own concentration, as given; one value stands for one run. Counts like (3×) count equal records among those shown.
# Key:
# COLO 205 colon = assay: NCI-60 one-dose screen, 48 h (100 = growth as untreated, 0 = no growth, -100 = all killed); settings: 2.5 mM
# DU-145 prostate = assay: as above; settings: 2.5 mM
structure (smiles),measurement,setting,value
O=c1[nH]cc(F)c(=O)[nH]1,growth,COLO 205 colon; runs of 1991,"inactive: 23.2, 13.9, 19.4, 10.5% and active: -61, -26.3, -95.3, -40.2, -2.72, 9.16, 0.615, -53.3, -46.5, 9.63, -17.4, -37.7, -52.7, -62.4%"
same,growth,COLO 205 colon; runs of 1992,"active: -3.59, 7.35, -48.1, -24.3, -48.9, -68.4, -37.1 (2×), 5.18, 4.47, -34.7, -29.4, -80.1, -90.6, -68.2, -35.5, 3.43, -15.9, 0.516, 0.971, -36.4, -33.4, -29.5, -41.6 (2×), -11.2, -54.1, -23.9, -74.6, -1.61, -78.8, -66.1, -27.9, 8.19, -57.1, -60.4, 9.83, -2.29, 2.14, 8.99, -38.4, -54, -17.6, -37.8, -33.5, -70.2, -42.3 (2×), -38.6 (2×), -75.6, -91 (2×), -44.1, 4, 4.33, -2.78, -10.2, -20.8, -76.4, 6.49, -93.9, -32.4, -74.5, 7.3, 6.75, -44.7 (2×), -15.5, -28.5, -14.6, -59.5, -57.2, -62, -23.8, -73.8, -59.6, 5.42, -64.7, 3.22, -66.4, -21.7, -69.7, 5.12, 9.79, -47.3, -88.1, -71.2, 9.44, -55.2, -18.5, 3.28, 8.24, -56.6, -3.12, -20.7, -53, -42.9, -51.5, -50, -36.7, 2.67, -80.3, -71.6, -6.1, 3.14, -37.5% and inactive: 17.1, 14.8, 47.8, 109, 12.8, 10.2, 17.5 (2×), 15, 18.6, 14.4, 16.9, 12.5, 42.4, 21.5, 10.1, 24.5%"
same,growth,COLO 205 colon; runs of 1993,"active: 5.14, 3.36, -23.3, -92.3, -31.3, 6.96, -7.51, -30.4, -46.3, 0.715, 2.56, -29.4, -6.99, -39, -68.7, 0.594, -20.2, -21.1, -37.9, -10.9, -31.4, 3.61, -22.3, -69.2, 4.2, -50.6, -2.31, -78, -80.9, 1.02, -68.6% and inactive: 45.4, 10.5, 17.2, 35.2, 21.7, 24.6, 16.3, 13.4, 52.5, 30, 93.2, 85, 17.7, 14.6, 18.1, 20%"
same,growth,COLO 205 colon; runs of 1994,"inactive: 20, 21.5, 18.1, 18.7, 19.2, 10.5, 15.5% and active: -40.7, -16.1, -72, -40.3, -37.8, -74.1, -74.3, 8.82, -69.3, -33.5, 4.39, -5.07, -12.4, -79.6, -34, -85.1, -16.7, 1.9, -70.8, 9.87, -52.4, -39.5, -88.1, 3.94, -86.6, 1.06, -6.46, 3.95%"
same,growth,COLO 205 colon; runs of 1995,"active: -2.58, -91.2, -86.9, -62.3, -73.4, -3.24, -43.1, -42.6, -47, -48.2, -88, -71.8, -53.3, 5.65, -71.2, -1.87, -57, -63.5, 3.63, 4.95, -54.6, -17.2, -72.8, -19.3, 0.0764, -45.6, 2.37, 3.25, -2.64% and inactive: 17.9, 19.2, 35, 29.1, 12.6, 22.2, 19, 14, 17.4%"
same,growth,COLO 205 colon; runs of 1996,"inactive: 28.9 (2×), 12.2, 10.9, 34.8, 15.8, 29.5, 37.5, 21.7, 16.1, 24.8, 17.7, 19.5, 14, 11.2, 12.3, 25.7, 16.6, 17.4, 25.1, 16.7, 13.4, 19.3, 22, 12.1, 11% and active: -71.5, 5.7, -64.6, -28.1, -7.65, 3.84, -43.2, -71, 8.66, -70.7, -40.8, -31, -9.53, 5.94, -8.58, 9.17, 1.54, -27.1, 6.25, -69.8, -77.6, -74.5, -35.2, -1.33, 0.212, -41.2, -11.4, 1.26, -43.8, 1.96, 0.195, -22.2, -50%"
same,growth,COLO 205 colon; runs of 1997,"inactive: 22, 20.8, 15.1, 19.5, 61.5, 10.1, 21.3, 17.3, 12.7, 10.6, 29.3, 11, 20, 14.9% and active: -32.4, 3.75, 7.6, -10.1, -13.8, 5.13, -27.2, -20.8, -2.86, -40.1, -12.2, -9.23, -64.4, -100, -32.6, -86.5, -5.08, -55.2, -43.1, -23.4, -72.5, -16, -16.1 (2×), 4.48, -59.6, -47.6, -29.2%"
same,growth,COLO 205 colon; runs of 1998,"active: -17.3, 9.7, -79.8, -77.5, 8.36, -4.27, -0.753, -5.1, -44.8, -57, -13.3, -25.1, -15.6, 4.12, 3.94, 3.26, 9.33, 2.69, 3.2, -3.73% and inactive: 16, 19.4, 29.2, 15.3, 12.2, 29.3%"
same,growth,COLO 205 colon; runs of 1999,"inactive: 19.6%, 19.8%, 108% and active: 2.15, -22.3, -59.3, -70.6, -32.4, 0, -67.4, 2.89, 1.23, 0.841%"
same,growth,COLO 205 colon; runs of 2000,"active: -48.1, 1.9, 3.8, -31.7%"
same,growth,DU-145 prostate; runs of 1993,"inactive: 35.6, 23.6, 30, 25.2, 20.6, 35.1, 21.9, 30.8, 24.1, 31.2 (2×), 29, 22.8, 12.7, 11.4, 20.8, 59.8, 33.8, 104, 26.3, 85.5, 19.8, 21.7, 36.1, 26.8% and active: -34.1, -3.37, 7.04, -38.7 (2×), -18.7, 7.06, 6.02, 9.68, -28, -12.3, 4.22, -8.13, -40, -3.11, 5.86, -7.01, -25.9, -15.1, -17.1, 4.57, 7.29%"
same,growth,DU-145 prostate; runs of 1994,"inactive: 38.4, 28.1, 35.8, 17.4, 20, 16.9, 25.7, 35.1, 26.2, 10.3, 23.7, 20.9, 33.5, 42.7, 22.2, 28.9, 14.7, 22.7, 21.9, 19.1, 34.7, 35.3, 13.4, 29.5, 31.4, 13.6% and active: -20.2, 9.62, 7.07, -3.36, 5.42, 8.28, -1.75%"
same,growth,DU-145 prostate; runs of 1995,"inactive: 28, 29.9, 14.6, 30.4, 39.1, 19.1, 18.1, 11.5, 12.1, 11.9, 44.2 (2×), 17.6, 21.4, 34.1, 33.8, 14, 21.9, 16.3, 19.5, 18.7, 17.5, 19.9, 33.5% and active: -6.76, 5.82, 2.11, 4.39, -7.98, 4.42, 7.23, 5.3, 4.52, 0.0743, -7.07, 9.43, 3.1, -34.9%"
same,growth,DU-145 prostate; runs of 1996,"inactive: 29.9, 27.4 (2×), 20.8 (2×), 14.3, 35.3, 30.7, 23.5, 30, 13, 32.5, 28.7, 21, 21.3, 20.4, 34.8, 37.7, 34.3, 18.7 (2×), 32.9, 30.1, 22.9, 30.2, 33.9, 24.5, 23.1, 23 (2×), 28.9, 16.8, 33.6, 20.7, 16, 10.4, 29.6, 32, 21.9, 24.8, 22.6, 25.8, 36, 11.2, 32.4, 22.1, 30.4, 40.8, 26.9, 13.4, 24.4, 33% and active: -17.7, 3.22, 5.77, 5.99%"
same,growth,DU-145 prostate; runs of 1997,"inactive: 23.9, 24, 34.9, 26.7, 30.8, 26.5, 32.6, 20.7 (2×), 13.3, 26.8, 31.6, 52.5, 17, 17.9, 30, 23.8, 27.4, 35.7, 27.1, 29.7, 19.7, 28.6, 21.2, 36.2, 25.8, 25.3, 29.9, 18.5, 19.9, 23.5, 23, 14.4, 29.6, 21.5, 27, 19.3% and active: 9.14, 6.14, -15.3, 9.66%"
